Experimental findings from publication PMC4336329 (PLoS ONE, 2015) are described below.

Screen size: about 310,000 compounds; about 2,200 (0.71%) showed an effect of 50% or more. Effects have a minus sign here. The list shows a part of the results.

The target of the experiment is human ether-à-go-go-related gene (hERG) potassium channel (human, UniProt Q12809). Kind of experiment: primary screen, population patch clamp on CHO cells stably expressing hERG.
Sequence of human ether-à-go-go-related gene (hERG) potassium channel (Q12809 whole entry, looked up): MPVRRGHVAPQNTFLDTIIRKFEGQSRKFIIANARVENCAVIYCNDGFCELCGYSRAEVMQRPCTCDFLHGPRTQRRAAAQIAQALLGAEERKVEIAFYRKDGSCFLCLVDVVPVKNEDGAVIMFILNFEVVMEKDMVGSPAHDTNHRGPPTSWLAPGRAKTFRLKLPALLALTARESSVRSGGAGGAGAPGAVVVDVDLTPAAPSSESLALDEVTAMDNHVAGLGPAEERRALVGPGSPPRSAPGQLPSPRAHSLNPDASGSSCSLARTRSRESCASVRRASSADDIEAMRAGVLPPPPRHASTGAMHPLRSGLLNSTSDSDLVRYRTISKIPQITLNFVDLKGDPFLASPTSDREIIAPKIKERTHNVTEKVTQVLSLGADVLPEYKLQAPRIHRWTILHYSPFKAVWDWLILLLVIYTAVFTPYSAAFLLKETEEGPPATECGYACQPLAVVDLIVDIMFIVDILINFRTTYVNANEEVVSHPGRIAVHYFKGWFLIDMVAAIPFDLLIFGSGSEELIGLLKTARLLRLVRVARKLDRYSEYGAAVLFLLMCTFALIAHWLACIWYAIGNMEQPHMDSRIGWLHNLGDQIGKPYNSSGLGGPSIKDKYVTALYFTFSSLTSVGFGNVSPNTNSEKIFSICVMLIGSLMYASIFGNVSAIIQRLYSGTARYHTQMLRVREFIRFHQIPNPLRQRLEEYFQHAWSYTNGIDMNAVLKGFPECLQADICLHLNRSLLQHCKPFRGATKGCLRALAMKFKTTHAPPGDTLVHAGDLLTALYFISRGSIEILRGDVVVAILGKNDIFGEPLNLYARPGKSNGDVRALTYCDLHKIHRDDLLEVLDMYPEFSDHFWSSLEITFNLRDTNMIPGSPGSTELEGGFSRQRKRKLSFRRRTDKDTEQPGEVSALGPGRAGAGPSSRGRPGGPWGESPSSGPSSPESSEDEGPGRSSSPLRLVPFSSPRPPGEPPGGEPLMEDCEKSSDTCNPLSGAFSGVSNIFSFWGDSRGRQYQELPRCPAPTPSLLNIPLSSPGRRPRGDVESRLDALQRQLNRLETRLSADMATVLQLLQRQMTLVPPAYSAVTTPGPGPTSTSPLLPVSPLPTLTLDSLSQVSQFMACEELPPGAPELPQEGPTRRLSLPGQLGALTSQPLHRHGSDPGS
For the molecule `COc1ccccc1NC(=O)Cc1noc(CSc2nnc(N)s2)n1`, the “hERG current change (%, negative = inhibition) at 1uM” value is reported as 13.6%.

Consider `Cc1ccc(N2CC(C(=O)Nc3cccc(F)c3)CC2=O)cc1` (stereo not drawn), for which the “hERG current change (%, negative = inhibition) at 1uM” value came out at 8.72%.

Regarding `Fc1ccc(-c2nc3nc4ccccc4nc3n2Cc2ccco2)cc1`, the “hERG current change (%, negative = inhibition) at 1uM” value is -14.9%.

Regarding `COc1ccccc1NC(=O)C(O)C(O)C(=O)Nc1ccccc1OC` (stereo not drawn), the “hERG current change (%, negative = inhibition) at 1uM” value was 4.56%.

`Cc1cccc(OCCSc2nc3ccccc3n2CC(=O)O)c1`: the “hERG current change (%, negative = inhibition) at 1uM” value turned out to be 10.1%.

Turning to `COc1ccc(/C=N/NC(=O)CCn2cnc3ccccc32)cc1`, the “hERG current change (%, negative = inhibition) at 1uM” value worked out at 12.8%.

`CCCCC(=O)NNC(=S)NC(=O)c1cccc([N+](=O)[O-])c1`: the “hERG current change (%, negative = inhibition) at 1uM” value was found to be 9.93%.

Turning to `Cc1csc(NC(=O)CCS(=O)(=O)c2ccc(Br)cc2)n1`, the “hERG current change (%, negative = inhibition) at 1uM” value came to 9.47%.

Consider `Cc1cccc(N2CC(O)=C(c3nc4ccccc4n3C)C2=N)c1`, for which the “hERG current change (%, negative = inhibition) at 1uM” value is -8.63%.

For `CCCCCc1cc(=O)oc2c(C(CCN3CCN(c4ccccc4)CC3)c3ccc4c(c3)OCO4)c(OC)cc(OC)c12` (stereo not drawn), the “hERG current change (%, negative = inhibition) at 1uM” value is reported as 16.1%.

As for `CCCCNC(=O)C1CCCN(S(=O)(=O)c2ccc(-n3cnnn3)cc2)C1` (stereo not drawn), the “hERG current change (%, negative = inhibition) at 1uM” value is -0.0403%.

Take `O=C(c1ccc(F)cc1)n1c(NCc2ccccc2)n[nH]c1=S`: the “hERG current change (%, negative = inhibition) at 1uM” value is 4.04%.

On to `COC(=O)c1cc(Cl)c(NC(=O)Cc2ccccc2)cc1OC`, for which the “hERG current change (%, negative = inhibition) at 1uM” value came to 10.2%.

For `COc1cccc(NCc2cc(=O)oc3cc(-c4ccccc4)c(O)cc23)c1`, the “hERG current change (%, negative = inhibition) at 1uM” value is listed as 12.6%.

As to `Cc1ccc(CNc2ccc3c(c2)OCO3)cc1`, the “hERG current change (%, negative = inhibition) at 1uM” value is 5.08%.

As to `O=C(c1ccc2c(c1)OCO2)N1CCNc2ccccc2C1`, the “hERG current change (%, negative = inhibition) at 1uM” value was 4.55%.

In the case of `CSc1cccc(N=C2C(=O)Nc3ccccc32)c1`, the “hERG current change (%, negative = inhibition) at 1uM” value worked out at 7.79%.

On to `CCOC(=O)c1sc(N)c(C(=O)OCC)c1COC(=O)C1CC(=O)N(Cc2ccco2)C1` (stereo not drawn), for which the “hERG current change (%, negative = inhibition) at 1uM” value came to 4.29%.

For `O=C(Nc1ccc(N2CCCCC2)cc1)c1ccccn1`, the “hERG current change (%, negative = inhibition) at 1uM” value is recorded as 20.8%.

Take `Cc1noc(C)c1C(=O)OC(C)C(=O)N1CCc2ccccc21` (stereo not drawn): the “hERG current change (%, negative = inhibition) at 1uM” value is 13.3%.

For the molecule `C=CCCC(=O)N1CCC(CCC(=O)NC2CC2)CC1`, the “hERG current change (%, negative = inhibition) at 1uM” value worked out at 1.12%.

As to `CN=C(Nc1cc(C)nn1CCC#N)c1ccccc1F`, the “hERG current change (%, negative = inhibition) at 1uM” value is given as 1.18%.

With `CCOc1ccc(C(NC(=O)c2ccco2)c2ccc(OC)c(OC)c2)cc1` (stereo not drawn), the “hERG current change (%, negative = inhibition) at 1uM” value was determined as 9.16%.

Take `O=C(CCC1CCCC1)N1CCN(C2CCCC2)CC1.O=C(O)C(=O)O`: the “hERG current change (%, negative = inhibition) at 1uM” value is recorded as -21.4%.

Regarding `CC(=O)c1cccc(NC(=O)CCc2nnc3ccc(N4CCN(C)CC4)nn23)c1`, the “hERG current change (%, negative = inhibition) at 1uM” value was determined as 14.4%.

Turning to `Cc1ccc(OCCn2c(=S)[nH]c3ccccc32)c(C(C)C)c1`, the “hERG current change (%, negative = inhibition) at 1uM” value was 9.69%.

Regarding `Cc1cccc(CC2SC(N3CCN(c4ccccc4)CC3)=NC2=O)c1` (stereo not drawn), the “hERG current change (%, negative = inhibition) at 1uM” value was 7.67%.

Consider `CCC1Sc2ccc(S(=O)(=O)CCC(=O)Nc3ccc(OC(F)(F)F)cc3)cc2NC1=O` (stereo not drawn), for which the “hERG current change (%, negative = inhibition) at 1uM” value stood at 15.3%.

Take `CCOC(=O)N1CCN(Cc2nc3c(c(=O)n(C)c(=O)n3C)n2CCC(C)C)CC1`: the “hERG current change (%, negative = inhibition) at 1uM” value turned out to be 0.807%.

In the case of `CCc1nc2ccc(C(=O)NCc3ccc(C)o3)cc2nc1CC`, the “hERG current change (%, negative = inhibition) at 1uM” value is 6.29%.

With `C=CCOC(=O)C1=C[C@@H](c2ccc(Br)cc2)C[C@@H](OCc2ccc(CO)cc2)O1`, the “hERG current change (%, negative = inhibition) at 1uM” value amounted to 10.1%.

Regarding `Cc1ccc(NC(=O)N(Cc2cccnc2)Cc2ccco2)cc1C`, the “hERG current change (%, negative = inhibition) at 1uM” value is given as -20.9%.

Regarding `CCCCn1cnc2sc(-c3ccccc3)cc2c1=O`, the “hERG current change (%, negative = inhibition) at 1uM” value amounted to 6.8%.

Regarding `Cc1ccccc1C(=O)Nc1c(-c2cccs2)c(=O)c2ccccc2n1C`, the “hERG current change (%, negative = inhibition) at 1uM” value is 11.6%.

For the molecule `Cc1ccnc(NS(=O)(=O)c2ccc(N3C(=O)c4ccccc4C3=O)cc2)n1`, the “hERG current change (%, negative = inhibition) at 1uM” value was 9.5%.

On to `Brc1ccc(-c2cn3c(n2)SCC3)cc1`, for which the “hERG current change (%, negative = inhibition) at 1uM” value came to 12.8%.

Take `COc1cc(C(=O)N2CCN(C/C=C/c3ccccc3)CC2)cc(OC)c1C`: the “hERG current change (%, negative = inhibition) at 1uM” value is 6.9%.

As to `C/C(=N/NC(=O)Cc1cccn1C)c1ccccc1`, the “hERG current change (%, negative = inhibition) at 1uM” value came to 10.1%.

On to `O=C(O)CN1CCN(C(c2ccccc2)c2ccccc2)CC1`, for which the “hERG current change (%, negative = inhibition) at 1uM” value was found to be 15.6%.

As for `O=C(NCc1ccco1)c1ccc(NS(=O)(=O)c2cccc([N+](=O)[O-])c2)cc1`, the “hERG current change (%, negative = inhibition) at 1uM” value is 11.6%.

Take `CC(NC(=O)CSc1nc2c(cc1C#N)CN(C)CC2)c1ccccc1` (stereo not drawn): the “hERG current change (%, negative = inhibition) at 1uM” value is -2.34%.

Regarding `CCOc1ccccc1NC(=O)Nc1ccc2c(c1)CCC2`, the “hERG current change (%, negative = inhibition) at 1uM” value is -11.2%.

As to `CC1(C)C(=O)OC(/C=C\c2ccccc2)C(C)(C)C1=O` (stereo not drawn), the “hERG current change (%, negative = inhibition) at 1uM” value is given as 4.76%.

As for `Cc1no[n+]([O-])c1COc1cccc(/C=N/Nc2nncn2N)c1`, the “hERG current change (%, negative = inhibition) at 1uM” value came to 12.4%.

For `COc1c(Cl)cc(C(=O)NCc2ccco2)cc1Cl`, the “hERG current change (%, negative = inhibition) at 1uM” value is listed as 0.773%.
